{"source": "PubChem BioAssay AID1768", "about": "(National Center for Advancing Translational Sciences (NCATS), 2009)", "note": "Out of some 270,000 compounds screened, about 620 (0.23%) were called active. This list was built around the results that the source calls inconclusive (neither active nor inactive); the mix of calls is not that of the screen. The call rests on the fitted dose curve; in most records, active means well fitted inhibition curve with a large enough effect in the polarisation, with a control signal flat (not every such curve was filed as active); inconclusive means small, poorly fitted or top-dose-only effect, or effect the other way, or a change in a side signal; inactive means no such curve, though single readings can be large or run the other way; the % refers to the polarisation. Potencies beside an inconclusive call are fits to weak or partial responses and may not hold up. “Side channel” marks fits to a control or component signal instead of the main read-out. Potency means the concentration at half of the fitted maximal effect; tags describe the fitted curve by direction and shape or compound fluorescence and quenching."}
{"target": "Menin (Homo sapiens) (UniProt O00255)", "sequence (O00255 whole entry, looked up)": "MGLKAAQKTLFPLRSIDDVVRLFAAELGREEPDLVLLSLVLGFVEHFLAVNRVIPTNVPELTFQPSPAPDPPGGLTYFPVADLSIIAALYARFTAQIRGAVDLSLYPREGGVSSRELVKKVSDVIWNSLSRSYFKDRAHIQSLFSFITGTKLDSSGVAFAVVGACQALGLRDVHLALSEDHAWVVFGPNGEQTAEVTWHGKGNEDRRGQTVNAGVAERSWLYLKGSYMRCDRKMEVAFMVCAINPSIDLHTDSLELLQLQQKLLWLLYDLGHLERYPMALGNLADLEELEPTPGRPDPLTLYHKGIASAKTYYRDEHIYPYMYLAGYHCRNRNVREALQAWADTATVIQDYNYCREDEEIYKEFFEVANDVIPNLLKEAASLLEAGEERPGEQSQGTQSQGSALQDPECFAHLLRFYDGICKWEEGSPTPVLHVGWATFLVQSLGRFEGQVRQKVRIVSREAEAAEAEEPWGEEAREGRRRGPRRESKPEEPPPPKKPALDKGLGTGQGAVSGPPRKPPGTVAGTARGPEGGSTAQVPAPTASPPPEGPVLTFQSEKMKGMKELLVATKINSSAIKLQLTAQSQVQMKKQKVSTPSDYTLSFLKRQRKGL", "experiment": "qHTS Assay for Inhibitors Targeting the Menin-MLL Interaction in MLL Related Leukemias: Competition With Texas Red Labeled MLL-derived Mutant Peptide", "conditions": "fluorescence polarization; series mostly up to 61.6 µM"}
{"smiles": "CCOC(=O)Cn1c(=O)oc2cc(S(=O)(=O)N3CCN(c4ccccn4)CC3)ccc21", "Potency": "inconclusive: 39.8 µM [fluorescent, side channel, single point]"}
{"smiles": "Cc1ccc(Nc2nc(-c3ccc(S(=O)(=O)N4CCOCC4)cc3)cs2)cc1Cl", "Potency": "inconclusive: 3.16 µM [quencher, side channel, partial curve]"}
{"smiles": "CCCCNC(NCCCC)=C(S(=O)(=O)CC)S(=O)(=O)CC", "Potency": "inconclusive: 39.8 µM [inhibitor, single point]"}
{"smiles": "O=[N+]([O-])c1cc(Cl)cc(/C=N/Nc2nc3ccccc3s2)c1O", "Potency": "inconclusive: 22.4 µM [quencher, partial curve]"}
{"smiles": "Cc1cccc(NC(=O)c2cccc(NC(=O)Cc3cccs3)c2)c1", "Potency": "inconclusive: 35.5 µM [quencher, side channel, single point]"}
{"smiles": "CCCc1cc2c(cc1NC(=O)c1ccc(C)cc1)OCO2", "Potency": "inconclusive: 39.8 µM [fluorescent, single point]"}
{"smiles": "O=C(/C=C/c1ccc(Cl)cc1)N1CCN(Cc2ccccc2)CC1", "Potency": "inconclusive: 20 µM [fluorescent, side channel, partial curve]"}
{"smiles": "COc1ccc([N+](=O)[O-])cc1NC(=O)CSc1nc(C)c(C)c(C)n1", "Potency": "inactive"}
{"smiles": "COc1ccc(-c2noc(-c3ccccc3Cl)n2)cc1OC", "Potency": "inconclusive: 28.2 µM [fluorescent, side channel, single point]"}
{"smiles": "Cc1ccccc1OCC(=O)N1CCc2ccccc2C1", "Potency": "inconclusive: 10 µM [fluorescent, side channel, partial curve]"}
{"smiles": "COc1ccc(-c2csc(NC(=O)c3cccs3)c2C(=O)O)cc1OC", "Potency": "inconclusive: 7.94 µM [quencher, side channel, partial curve]"}
{"smiles": "COC(=O)c1ccc(NC(=O)C(=O)N2CCN(C(=S)NCCc3ccccc3)CC2)cc1", "Potency": "inconclusive: 11.2 µM [quencher, side channel, partial curve]"}
{"smiles": "CCn1cc2nc(SCC(=O)Nc3ccc(OC)cc3OC)n(Cc3ccc(OC)cc3)c(=O)c2n1", "Potency": "inconclusive: 28.2 µM [fluorescent, side channel, partial curve]"}
{"smiles": "O=C(Nc1nc2ccccc2s1)c1cc2c(s1)-c1ccccc1OC2", "Potency": "inconclusive: 10 µM [quencher, side channel, partial curve]"}
{"smiles": "Cc1ccc(S(=O)(=O)N2CCN(S(=O)(=O)c3ccc4c(c3)OCCO4)CC2)cc1", "Potency": "inconclusive: 7.08 µM [inhibitor, partial curve]"}
{"smiles": "Cc1ccc(C(=O)Nc2ccc(C)c(S(=O)(=O)Nc3ccccc3Cl)c2)s1", "Potency": "inconclusive: 14.1 µM [quencher, side channel, partial curve]"}
{"smiles": "COC(=O)c1c(-c2cc(OC)c(OC)c(OC)c2)c2ccc(OCc3ccccn3)cc2c(=O)n1-c1ccc(N)cc1", "Potency": "inconclusive: 11.2 µM [fluorescent, side channel, partial curve]"}
{"smiles": "c1cncc(CSc2nnc3ccc(-c4cccs4)nn23)c1", "Potency": "inconclusive: 10 µM [inhibitor, partial curve]"}
{"smiles": "COc1cccc(-c2cnc(NCc3cc(Cl)ccc3O)n2C)c1", "Potency": "inconclusive: 31.6 µM [quencher, side channel, single point]"}
{"smiles": "O=C1NC(=S)N/C1=C\\c1ccc(N2CCOCC2)cc1", "Potency": "inactive"}
{"smiles": "CN(CC(=O)Nc1cccc(F)c1)CC(=O)Nc1cccc([N+](=O)[O-])c1", "Potency": "inconclusive: 10 µM [quencher, side channel, partial curve]"}
{"smiles": "Cc1[nH]c(=O)c(S(=O)(=O)c2ccccc2)c(C)c1Cl", "Potency": "inconclusive: 2.51 µM [inhibitor, full curve]"}
{"smiles": "COc1ccccc1OCC(O)Cn1c(=N)n(Cc2ccccc2)c2ccccc21", "note": "(configuration not stated)", "Potency": "inconclusive: 0.562 µM [inhibitor, partial curve, poor fit]"}
{"smiles": "CCO[C@H]1OC(C(=O)N2CCN(Cc3ccc4c(c3)OCO4)CC2)=C[C@@H](C2CCCCC2)[C@@H]1CCCO", "Potency": "inconclusive: 1.78 µM [fluorescent, side channel, full curve]"}
{"smiles": "COc1ccc(NC(=O)Nc2ccc(Cc3ccncc3)cc2)cc1OC", "Potency": "inconclusive: 14.1 µM [quencher, partial curve]"}
{"smiles": "CCOC(=O)c1ccc(-n2c(-c3ccco3)nc3ccccc3c2=O)cc1", "Potency": "inconclusive: 35.5 µM [inhibitor, single point]"}
{"smiles": "C=CCC1(N(C(C)=O)c2ccccc2C)CCCCC1", "Potency": "inconclusive: 10 µM [fluorescent, side channel, partial curve]"}
{"smiles": "COc1ccc(-n2c(=S)[nH]c3cc(C(=O)NCc4ccco4)ccc3c2=O)cc1OC", "Potency": "inconclusive: 22.4 µM [inhibitor, single point]"}
{"smiles": "N#CC1=C(N)NC(SCc2ccc(Cl)cc2)=C(C#N)C12CCCCC2", "Potency": "inconclusive: 15.8 µM [quencher, side channel, partial curve]"}
{"smiles": "O=C(Nc1ccccc1)/C(=C/c1ccc([N+](=O)[O-])cc1)NC(=O)c1ccco1", "Potency": "inconclusive: 39.8 µM [quencher, side channel, single point]"}
{"smiles": "O=C(Nc1ccccc1)OCCOc1ccc(Br)cc1", "Potency": "inconclusive: 39.8 µM [inhibitor, single point]"}
{"smiles": "O=[N+]([O-])c1ccc(-c2cn(-c3ccccc3)c(=S)[nH]2)cc1", "Potency": "inconclusive: 22.4 µM [quencher, side channel, single point]"}
{"smiles": "CCc1ccc2nc(N=C(N)N)nc(C)c2c1", "Potency": "inconclusive: 28.2 µM [fluorescent, side channel, single point]"}
{"smiles": "O=C(Nc1nncs1)c1cccc(S(=O)(=O)N2CCCC2)c1", "Potency": "inactive"}
{"smiles": "O=c1c(-c2ccccc2)coc2c(CN3CCCC3)c(O)ccc12", "Potency": "inactive"}
{"smiles": "COC(=O)NCC(c1cccnc1)N1CCN(c2ccccc2OC)CC1", "note": "(configuration not stated)", "Potency": "inconclusive: 5.01 µM [inhibitor, single point]"}
{"smiles": "Cc1ccc(O)c(NC2=C(Cl)C(=O)N(Cc3ccccc3)C2=O)c1", "Potency": "inconclusive: 20 µM [quencher, partial curve]"}
{"smiles": "CCOc1ccc(-n2ccnc2SCC(=O)NCc2ccc3c(c2)OCO3)cc1", "Potency": "inconclusive: 25.1 µM [fluorescent, side channel, single point]"}
{"smiles": "NC(=O)NC(=O)CN1c2cccc3cccc(c23)S1(=O)=O", "Potency": "inconclusive: 39.8 µM [fluorescent, single point]"}
{"smiles": "CC(C)CNC(=O)NC(=O)CSc1nc2ccccc2n1CC(C)C", "Potency": "inconclusive: 3.16 µM [fluorescent, side channel, partial curve]"}
{"smiles": "COc1ccc(/C=C/c2noc(-c3ccccc3OC(C)=O)n2)cc1", "Potency": "inconclusive: 39.8 µM [quencher, single point]"}
{"smiles": "COc1cccc(Nc2nc(-c3cccs3)nc3ccccc23)c1", "Potency": "inconclusive: 10 µM [quencher, side channel, partial curve]"}
{"smiles": "COc1ccccc1/C=C/CN1CCC(Oc2ccc(C(=O)N3CCCCC3)cc2)CC1", "Potency": "inconclusive: 8.91 µM [fluorescent, full curve, poor fit]"}
{"smiles": "Cc1cccc(N(CC(=O)N2CCN(c3ccccc3F)CC2)S(C)(=O)=O)c1", "Potency": "inconclusive: 14.1 µM [fluorescent, side channel, partial curve]"}
{"smiles": "O=C1c2ccccc2C(=O)N1c1nc(-c2cccs2)cs1", "Potency": "inconclusive: 28.2 µM [quencher, side channel, single point]"}
{"smiles": "O=c1[nH]c2ccc(S(=O)(=O)N3CCN(Cc4ccccc4)CC3)cc2[nH]c1=O", "Potency": "inactive"}
{"smiles": "Cc1ccnc(NC(=O)CCC(=O)N(CC(=O)NC2CCCCC2)Cc2ccc3c(c2)OCO3)c1", "Potency": "inconclusive: 3.98 µM [inhibitor, partial curve]"}
{"smiles": "Cc1ccc(N2CS(=O)(=O)/C(=C/N(C)C)C2=O)cc1", "Potency": "inconclusive: 35.5 µM [inhibitor, single point]"}
{"smiles": "O=C(O)c1cc(S(=O)(=O)NC(Cc2c[nH]c3ccccc23)C(=O)O)ccc1Cl", "note": "(configuration not stated)", "Potency": "inconclusive: 35.5 µM [quencher, side channel, single point]"}
{"smiles": "CCC(=O)Nc1ccc(C2C(=O)c3ccccc3C2=O)cc1", "Potency": "inconclusive: 22.4 µM [quencher, side channel, single point]"}
{"smiles": "COc1cccc(OC)c1OCCCOc1cccc2cccnc12", "Potency": "inconclusive: 39.8 µM [fluorescent, side channel, partial curve]"}
{"smiles": "O=C(Nc1nc(-c2ccc([N+](=O)[O-])cc2)cs1)c1c(F)cccc1F", "Potency": "inconclusive: 20 µM [quencher, side channel, partial curve]"}
{"smiles": "COc1ccc(S(=O)(=O)N2CCCCCC2)cc1C(=O)OCC(=O)Nc1cc(C)on1", "Potency": "inconclusive: 20 µM [fluorescent, side channel, single point]"}
{"smiles": "COC(=O)c1ccc(C(NC(=O)OCc2ccccc2)/C(F)=C/[C@@H](C)C(=O)NCc2cc(C)on2)cc1", "note": "(some centres not stated)", "Potency": "inactive"}
{"smiles": "Cc1cc2c(c(C)c1Cl)C(c1ccc3c(c1)OCO3)CC(O)(c1ccccc1)O2", "note": "(configuration not stated)", "Potency": "inconclusive: 39.8 µM [inhibitor, single point]"}
{"smiles": "CC(C)CNC(=O)c1noc2c1CCCC2", "Potency": "inconclusive: 12.6 µM [inhibitor, partial curve, poor fit]"}
{"smiles": "O=C(NN1c2ccccc2CCc2ccccc21)c1ccccc1Br", "Potency": "inconclusive: 14.1 µM [inhibitor, partial curve]"}
